Some of the results follow. Sequences were assembled here from the parent chain. Values near 0.05 are background.
B1: TEV protease; numbered along this chain (parent)
chain: MGESLFKGPRDYNPISSSICHLTNESDGHTTSLYGIGFGPFIITNKHLFRRNNGTLVVQSLHGVFKVKDTTTLQQHLVDGRDMIIIRMPKDFPPFPQKLKFREPQREERICLVTTNFQTKSMSSMVSDTSCTFPSGDGIFWKHWIQTKDGQCGSPLVSTRDGFIVGIHSASNFTNTNNYFTSVPKNFMELLTNQEAQQWVSGWRLNADSVLWGGHKVFMVKPEEPFQPVKEATQL

Variants of: B1
Test: raw area under fraction-flipped curve 0-4 h after induction (AUC4h, not background-subtracted), DNA-recorder readout of cleavage of the substrate (dimensionless); higher = more cleavage of the substrate by the protease variant
Conditions: temperature: 34 °C; time window: 0-4 h after rhamnose induction
Description: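 In vivo DNA recorder in E. coli TOP10(DE3) ΔrhaA at 34 °C. Each TEVp single-site mutant (parent TEVp 0) is paired with a single-site variant of the 7-mer TEVs (canonical ENLYFQ|S). The substrate sits between flexible linkers in a Bxb1-sfGFP-TEVs-SsrA fusion, so cleavage stabilises Bxb1 and speeds flipping of a recombination array, read by NGS. The value is the raw area under the fraction-flipped curve over 0-4 h after rhamnose induction (AUC4h), with ≥20 reads per time point. It is not background-subtracted; inactive controls average about 0.047.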
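Also: Bxb1 expression induced with 0.2% (w/v) L-rhamnose at OD600 near 0.5, cultures sampled hourly, flipped fraction per protease–substrate barcode pair counted by paired-end Illumina sequencing.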

Variant	area with substrate ENLYFCS	area with substrate ENLYFDS	area with substrate ENLYFES	area with substrate ENLYFFS	area with substrate ENLYFIS	area with substrate ENLYFKS	area with substrate ENLYFNS	area with substrate ENLYFPS	area with substrate ENLYFTS	area with substrate ENLYFVS	area with substrate ENLYFYS	area with substrate ENLYFGS	area with substrate ENLYFHS	area with substrate ENLYFLS	area with substrate ENLYFMS	area with substrate ENLYFRS	area with substrate ENLYFSS	area with substrate ENLYFWS
MGESLFKGPRDYNPISSSICHLTNESDGHTTSLYGIGFGPFIITNKHLFRRNNGTLVVQSLHGVFKVKDTTTLQQHLVDGRDMIIIRMPKDFPPFPQKLKFREPQREERICLETTNFQTKSMSSMVSDTSCTFPSGDGIFWKHWIQTKDGQCGSPLVSTRDGFIVGIHSASNFTNTNNYFTSVPKNFMELLTNQEAQQWVSGWRLNADSVLWGGHKVFMVKPEEPFQPVKEATQL [V113E]	0.0636	0.0682	0.0608	0.076	0.053	0.0583	0.0626	0.0518	0.0402	0.0429	0.0603	–	–	–	–	–	–	–
MGESLFKGPRDYNPISSSICHLTNESDGHTTSLYGIGFGPFIITNKHLFRRNNGTLVVQSLHGVFKVKDTTTLQQHLVDGRDMIIIRMPKDFPPFPQKLKPREPQREERICLVTTNFQTKSMSSMVSDTSCTFPSGDGIFWKHWIQTKDGQCGSPLVSTRDGFIVGIHSASNFTNTNNYFTSVPKNFMELLTNQEAQQWVSGWRLNADSVLWGGHKVFMVKPEEPFQPVKEATQL [F101P]	0.0594	–	0.0522	0.0623	0.0503	0.0472	0.0596	0.0504	0.054	0.0612	–	0.0442	0.0529	0.0579	0.0544	0.0639	0.0504	0.0477
MGESLFKGPRDYNPISSSICHLTNESDGHTTSLYGIGFGPFIITNKHLFRRNNGTLVVQSLHGVFKVKDTTTLQQHLVDGRDMIIIRMPKDFPCFPQKLKFREPQREERICLVTTNFQTKSMSSMVSDTSCTFPSGDGIFWKHWIQTKDGQCGSPLVSTRDGFIVGIHSASNFTNTNNYFTSVPKNFMELLTNQEAQQWVSGWRLNADSVLWGGHKVFMVKPEEPFQPVKEATQL [P94C]	0.042	–	–	0.0646	0.0508	0.0596	–	–	0.0749	0.0492	–	–	–	–	0.0905	–	–	–
MGESLFKGPRDYNPISSSICHLTNESDGHTTSLYGIGFGPFIITNKHLFRRNNGTLVVQSLHGVFKVKDTTTLQQHLVDGRDMIIIRMPKDFPPFPQKLKFREPQREERWCLVTTNFQTKSMSSMVSDTSCTFPSGDGIFWKHWIQTKDGQCGSPLVSTRDGFIVGIHSASNFTNTNNYFTSVPKNFMELLTNQEAQQWVSGWRLNADSVLWGGHKVFMVKPEEPFQPVKEATQL [I110W]	0.0424	–	0.0588	–	0.0504	–	–	0.0421	–	–	0.034	–	–	–	–	0.0443	0.0353	–
MGESLFKGPRDYNPISSSICHLTNESDGHTTSLYGIGFGPFIITNKHLFRRNNGTLVVQSLHGVFKVKDTTTLQQHLVDGRDMIIIRMRKDFPPFPQKLKFREPQREERICLVTTNFQTKSMSSMVSDTSCTFPSGDGIFWKHWIQTKDGQCGSPLVSTRDGFIVGIHSASNFTNTNNYFTSVPKNFMELLTNQEAQQWVSGWRLNADSVLWGGHKVFMVKPEEPFQPVKEATQL [P89R]	0.0578	–	0.0435	0.0641	0.0524	0.0464	0.0508	0.0552	0.0559	0.0459	–	0.0575	0.0608	–	0.0639	0.0595	0.0735	0.0776
MGESLFKGPRDYNPISSSICHLTNESDGHTTSLYGIGFGPFIITNKHLFRRNNGTLVVQSLHGVFKVKDTTTLQQHLVDGRDMIIIRMTKDFPPFPQKLKFREPQREERICLVTTNFQTKSMSSMVSDTSCTFPSGDGIFWKHWIQTKDGQCGSPLVSTRDGFIVGIHSASNFTNTNNYFTSVPKNFMELLTNQEAQQWVSGWRLNADSVLWGGHKVFMVKPEEPFQPVKEATQL [P89T]	0.0475	–	–	0.072	0.0139	–	–	0.0622	0.0509	–	0.058	–	–	0.0659	0.0411	0.0549	0.0474	–
MGESLFKGPRDYNPISSSICHLTNESDGHTTSLYGIGFGPFIITNKHLFRRNNGTLVVQSLHGVFKVKDTTTLQQHLVDGRDMIIIRMKKDFPPFPQKLKFREPQREERICLVTTNFQTKSMSSMVSDTSCTFPSGDGIFWKHWIQTKDGQCGSPLVSTRDGFIVGIHSASNFTNTNNYFTSVPKNFMELLTNQEAQQWVSGWRLNADSVLWGGHKVFMVKPEEPFQPVKEATQL [P89K]	0.033	–	0.0758	–	0.0557	–	0.0604	0.0791	–	0.0554	–	–	–	–	0.0577	–	0.0532	–
MGESLFKGPRDYNPISSSICHLTNESDGHTTSLYGIGFGPFIITNKHLFRRNNGTLVVQSLHGVFKVKDTTTLQQHLVDGRDMIIIRMPKDFPPFPQKLKFREPQREEDICLVTTNFQTKSMSSMVSDTSCTFPSGDGIFWKHWIQTKDGQCGSPLVSTRDGFIVGIHSASNFTNTNNYFTSVPKNFMELLTNQEAQQWVSGWRLNADSVLWGGHKVFMVKPEEPFQPVKEATQL [R109D]	0.0655	0.0678	0.0648	0.0628	0.0676	–	0.0579	–	–	0.0567	0.0577	–	–	–	0.0514	–	–	–
MGESLFKGPRDYNPISSSICHLTNESDGHTTSLYGIGFGPFIITNKHLFRRNNGTLVVQSLHGVFKVKDTTTLQQHLVDGRDMIIIRMPKDFPPFPQKLKFREPQREERICLVTHNFQTKSMSSMVSDTSCTFPSGDGIFWKHWIQTKDGQCGSPLVSTRDGFIVGIHSASNFTNTNNYFTSVPKNFMELLTNQEAQQWVSGWRLNADSVLWGGHKVFMVKPEEPFQPVKEATQL [T115H]	0.0579	0.0692	0.0718	0.0604	0.0592	–	0.0848	0.0776	0.0395	–	–	0.0682	0.0174	0.0467	–	0.0575	0.0646	0.0528
MGESLFKGPRDYNPISSSICHLTNESDGHTTSLYGIGFGPFIITNKHLFRRNNGTLVVQSLHGVFKVKDTTTLQQHLVDGRDMIIIRMPKDFPPFPQKLKFREPQREERIELVTTNFQTKSMSSMVSDTSCTFPSGDGIFWKHWIQTKDGQCGSPLVSTRDGFIVGIHSASNFTNTNNYFTSVPKNFMELLTNQEAQQWVSGWRLNADSVLWGGHKVFMVKPEEPFQPVKEATQL [C111E]	0.0679	0.0647	–	0.0716	0.0562	0.0804	–	0.0891	–	0.0587	–	0.0503	–	0.0209	–	0.052	–	–
MGESLFKGPRDYNPISSSICHLTNESDGHTTSLYGIGFGPFIITNKHLFRRNNGTLVVQSLHGVFKVKDTTTLQQHLVDGRDMIIIRMPKDFPPFPQKLKFREPQREERIQLVTTNFQTKSMSSMVSDTSCTFPSGDGIFWKHWIQTKDGQCGSPLVSTRDGFIVGIHSASNFTNTNNYFTSVPKNFMELLTNQEAQQWVSGWRLNADSVLWGGHKVFMVKPEEPFQPVKEATQL [C111Q]	0.0623	–	0.0712	0.0727	0.0476	0.0465	0.0631	0.0443	0.0708	–	–	–	–	0.0523	–	0.0605	0.0624	0.0594
MGESLFKGPRDYNPISSSICHLTNESDGHTTSLYGIGFGPFIITNKHLFRRNNGTLVVQSLHGVFKVKDTTTLQQHLVDGRDMIIIRMPKDFPPFPQHLKFREPQREERICLVTTNFQTKSMSSMVSDTSCTFPSGDGIFWKHWIQTKDGQCGSPLVSTRDGFIVGIHSASNFTNTNNYFTSVPKNFMELLTNQEAQQWVSGWRLNADSVLWGGHKVFMVKPEEPFQPVKEATQL [K98H]	0.0784	0.0526	–	0.0695	0.0518	0.0712	–	0.054	0.0569	–	0.063	0.0648	0.0627	0.053	0.0743	0.0662	–	–
MGESLFKGPRDYNPISSSICHLTNESDGHTTSLYGIGFGPFIITNKHLFRRNNGTLVVQSLHGVFKVKDTTTLQQHLVDGRDMIIILMPKDFPPFPQKLKFREPQREERICLVTTNFQTKSMSSMVSDTSCTFPSGDGIFWKHWIQTKDGQCGSPLVSTRDGFIVGIHSASNFTNTNNYFTSVPKNFMELLTNQEAQQWVSGWRLNADSVLWGGHKVFMVKPEEPFQPVKEATQL [R87L]	0.061	0.0549	0.0599	0.0669	0.0582	0.0457	0.062	0.046	0.0575	–	–	–	–	–	0.0766	–	0.0589	0.0528
MGESLFKGPRDYNPISSSICHLTNESDGHTTSLYGIGFGPFIITNKHLFRRNNGTLVVQSLHGVFKVKDTTTLQQHLVDGRDMIIIMMPKDFPPFPQKLKFREPQREERICLVTTNFQTKSMSSMVSDTSCTFPSGDGIFWKHWIQTKDGQCGSPLVSTRDGFIVGIHSASNFTNTNNYFTSVPKNFMELLTNQEAQQWVSGWRLNADSVLWGGHKVFMVKPEEPFQPVKEATQL [R87M]	0.038	–	0.0661	0.0736	–	–	–	–	0.0651	–	–	–	–	–	0.0664	–	–	–
MGESLFKGPRDYNPISSSICHLTNESDGHTTSLYGIGFGPFIITNKHLFRRNNGTLVVQSLHGVFKVKDTTTLQQHLVDGRDMIIIRMPTDFPPFPQKLKFREPQREERICLVTTNFQTKSMSSMVSDTSCTFPSGDGIFWKHWIQTKDGQCGSPLVSTRDGFIVGIHSASNFTNTNNYFTSVPKNFMELLTNQEAQQWVSGWRLNADSVLWGGHKVFMVKPEEPFQPVKEATQL [K90T]	0.0735	0.0817	0.0665	0.0684	0.056	–	–	0.0735	0.0576	0.0459	0.0461	–	0.0474	–	0.0622	0.0577	–	0.0568
MGESLFKGPRDYNPISSSICHLTNESDGHTTSLYGIGFGPFIITNKHLFRRNNGTLVVQSLHGVFKVKDTTTLQQHLVDGRDMIIIRMPKDMPPFPQKLKFREPQREERICLVTTNFQTKSMSSMVSDTSCTFPSGDGIFWKHWIQTKDGQCGSPLVSTRDGFIVGIHSASNFTNTNNYFTSVPKNFMELLTNQEAQQWVSGWRLNADSVLWGGHKVFMVKPEEPFQPVKEATQL [F92M]	0.0556	–	–	0.0819	–	–	–	0.0625	–	0.0541	–	–	0.0644	–	0.104	0.104	–	–
MGESLFKGPRDYNPISSSICHLTNESDGHTTSLYGIGFGPFIITNKHLFRRNNGTLVVQSLHGVFKVKDTTTLQQHLVDGRDMIIIRMPKDFPPFPQKLKFREPQREERICLVSTNFQTKSMSSMVSDTSCTFPSGDGIFWKHWIQTKDGQCGSPLVSTRDGFIVGIHSASNFTNTNNYFTSVPKNFMELLTNQEAQQWVSGWRLNADSVLWGGHKVFMVKPEEPFQPVKEATQL [T114S]	0.0698	0.0597	–	0.066	0.0649	–	0.0654	0.0529	0.0458	–	–	0.068	0.0596	–	0.0636	0.0641	0.0521	0.0575
MGESLFKGPRDYNPISSSICHLTNESDGHTTSLYGIGFGPFIITNKHLFRRNNGTLVVQSLHGVFKVKDTTTLQQHLVDGRDMIIIRMPKDFEPFPQKLKFREPQREERICLVTTNFQTKSMSSMVSDTSCTFPSGDGIFWKHWIQTKDGQCGSPLVSTRDGFIVGIHSASNFTNTNNYFTSVPKNFMELLTNQEAQQWVSGWRLNADSVLWGGHKVFMVKPEEPFQPVKEATQL [P93E]	0.0528	0.109	0.0764	0.0529	–	–	0.0587	0.0574	–	–	–	0.0402	–	–	–	0.0576	–	–
MGESLFKGPRDYNPISSSICHLTNESDGHTTSLYGIGFGPFIITNKHLFRRNNGTLVVQSLHGVFKVKDTTTLQQHLVDGRDMIIIRMPKDFGPFPQKLKFREPQREERICLVTTNFQTKSMSSMVSDTSCTFPSGDGIFWKHWIQTKDGQCGSPLVSTRDGFIVGIHSASNFTNTNNYFTSVPKNFMELLTNQEAQQWVSGWRLNADSVLWGGHKVFMVKPEEPFQPVKEATQL [P93G]	0.0568	–	0.0625	0.0667	0.0553	–	0.0543	0.0445	0.0762	–	–	0.0463	–	0.0583	–	0.0649	0.101	0.0548

— the supplement of paper PMC12217912
